The list shows a part of the results. At the low end of the ranking, values are background and their order means little.

The test has as its target GST-SBP-SLBP (stem-loop binding protein) (UniProt Q14493). In words: targeted RNA Bind-n-Seq.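 Further: DESeq read counts versus GST-SBP nonspecific binding control pulldown.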 The following applies: RBNS binding buffer: 25 mM Tris pH 7.5, 150 mM KCl, 3 mM MgCl2, 0.1% Tween, 0.5 mg/mL BSA, 1 mM DTT; 27 nM protein, 750 pM RNA pool; temperature not stated; high values mean tight binding.
As to “GGUCACGUCUCAAUCAACUCUUCCUCCAGGGAAAGCCCUGGCUAACUCAACAGCUCGCAGUCAAG”, the binding signal (log2 fold change) is 0.0397. As for “GGUCACGUCUCAAUCAACUCUAUUUCAGGAGUUUACUCCUGUUUAUUCAACAGCUCGCAGUCAAG”, the binding signal (log2 fold change) is -0.0283.

With “GGUCACGUCUCAAUCAACUCUACUUCCAGGGAAACCCCUGGUAUAUUCAACAGCUCGCAGUCAAG”, the binding signal (log2 fold change) is -0.0699. For the sequence “GGUCACGUCUCAAUCAACUCAUUCUCAGGAGUUUCCUCCUGCAUAGUCAACAGCUCGCAGUCAAG”, the binding signal (log2 fold change) turned out to be 0.184. For the sequence “GGUCACGUCUCAAUCAACUCUACUUCAGGAGUUUCCUCCUGCAAACUCAACAGCUCGCAGUCAAG”, the binding signal (log2 fold change) was 0.0801. With “GGUCACGUCUCAAUCAACUCUUUUCCCAGGGAAAUCCCUGGUUUUCUCAACAGCUCGCAGUCAAG” the figure was -0.00953. On to “GGUCACGUCUCAAUCAACUCAUCUCCCAGGGAAAACCCUGGCUAAUUCAACAGCUCGCAGUCAAG”, for which the binding signal (log2 fold change) was -0.261. With “GGUCACGUCUCAAUCAACUCCACGGAGGGGGGGAAAACCCCUUUACCCUCAUUUUCAACAGCUCGCAGUCAAG” the figure was 0.0356. With “GGUCACGUCUCAAUCAACUCUCAAGAGGGGGGGAAAACCCCUUUACCCUCACAAUCAACAGCUCGCAGUCAAG” the figure was 0.236.

Regarding “GGUCACGUCUCAAUCAACUCCCCAGAGGGGGGGAAAACCCCUUUACCCUCGUAAUCAACAGCUCGCAGUCAAG”, the binding signal (log2 fold change) is -0.316. Consider “GGUCACGUCUCAAUCAACUCUUUCUCAGGAGUUUUCUCCUGCAUACUCAACAGCUCGCAGUCAAG”, for which the binding signal (log2 fold change) was found to be 0.0582.

For “GGUCACGUCUCAAUCAACUCAUUUCCAGGAGUUUUCUCCUGCAUUCUCAACAGCUCGCAGUCAAG”, the binding signal (log2 fold change) was -0.0313.

Turning to “GGUCACGUCUCAAUCAACUCAUUUCCCAGGGAAAGCCCUGGCAUUCUCAACAGCUCGCAGUCAAG”, the binding signal (log2 fold change) was -0.0541. Turning to “GGUCACGUCUCAAUCAACUCUUCCGAGGGGGGGAAAACCCCUUUACCCUCACUAUCAACAGCUCGCAGUCAAG”, the binding signal (log2 fold change) came out at 0.347. With “GGUCACGUCUCAAUCAACUCUACUCCAGGAGUUUACUCCUGCUUUCUCAACAGCUCGCAGUCAAG” the figure was -0.108; with “GGUCACGUCUCAAUCAACUCAUUCUCAGGAGUUUCCUCCUGUUUACUCAACAGCUCGCAGUCAAG”, 0.0735. As to “GGUCACGUCUCAAUCAACUCUAUCCCCAGGGAAAGCCCUGGUAUAUUCAACAGCUCGCAGUCAAG”, the binding signal (log2 fold change) amounted to 0.366. With “GGUCACGUCUCAAUCAACUCAUUUUCCAGGGAAAACCCUGGUUUAUUCAACAGCUCGCAGUCAAG”, the binding signal (log2 fold change) was -0.141. With “GGUCACGUCUCAAUCAACUCUAUUCCAGGAGUUUCCUCCUGCAUACUCAACAGCUCGCAGUCAAG” the figure was 0.00341; with “GGUCACGUCUCAAUCAACUCUUUUUCAGGAGUUUCCUCCUGCUAAUUCAACAGCUCGCAGUCAAG”, -0.0557. With “GGUCACGUCUCAAUCAACUCAAUCCCCAGGGAAAACCCUGGCAUUCUCAACAGCUCGCAGUCAAG” the figure was -0.146; with “GGUCACGUCUCAAUCAACUCAUCUUCAGGAGUUUACUCCUGCUAUCUCAACAGCUCGCAGUCAAG”, 0.0554; with “GGUCACGUCUCAAUCAACUCCAAAGAGGGGGGGAAAACCCCUUUACCCUCAAGAUCAACAGCUCGCAGUCAAG”, -0.0287. With “GGUCACGUCUCAAUCAACUCACUAGAGGGGGGGAAAACCCCUUUACCCUCACUCUCAACAGCUCGCAGUCAAG” the figure was 0.0171; with “GGUCACGUCUCAAUCAACUCUUCUCCCAGGGAAAGCCCUGGCUAACUCAACAGCUCGCAGUCAAG”, 0.0497; with “GGUCACGUCUCAAUCAACUCAUCGCCAGGAGUUUCCUCCUGUAUAUUCAACAGCUCGCAGUCAAG”, 0.14. In the case of “GGUCACGUCUCAAUCAACUCAUUUUCAGGAGUUUUCUCCUGUUAACUCAACAGCUCGCAGUCAAG”, the binding signal (log2 fold change) was -0.125. Regarding “GGUCACGUCUCAAUCAACUCUAUCUCAGGAGUUUGCUCCUGCAAUUUCAACAGCUCGCAGUCAAG”, the binding signal (log2 fold change) worked out at 0.0141. With “GGUCACGUCUCAAUCAACUCCAACGAGGGGGGGAAAACCCCUUUACCCUCAAUAUCAACAGCUCGCAGUCAAG” the figure was -0.236; with “GGUCACGUCUCAAUCAACUCAUCUUCCAGGGAAAUCCCUGGCUAUUUCAACAGCUCGCAGUCAAG”, 0.109; with “GGUCACGUCUCAAUCAACUCAUCUCCAGGAGUUUCCUCCUGUAAACUCAACAGCUCGCAGUCAAG”, 0.135. With “GGUCACGUCUCAAUCAACUCAUCCUCAGGAGUUUUCUCCUGUUUAGUCAACAGCUCGCAGUCAAG” the figure was 0.214; with “GGUCACGUCUCAAUCAACUCUUCUUCCAGGGAAACCCCUGGUAAACUCAACAGCUCGCAGUCAAG”, -0.0462; with “GGUCACGUCUCAAUCAACUCUACUUCCAGGGAAAUCCCUGGCAUUCUCAACAGCUCGCAGUCAAG”, 0.107. In the case of “GGUCACGUCUCAAUCAACUCAAGUCCAGGAGUUUCCUCCUGUUAAUUCAACAGCUCGCAGUCAAG”, the binding signal (log2 fold change) is -0.209. Consider “GGUCACGUCUCAAUCAACUCCCACGAGGGGGGGAAAACCCCUUUACCCUCAUCUUCAACAGCUCGCAGUCAAG”, for which the binding signal (log2 fold change) was -0.203. For the sequence “GGUCACGUCUCAAUCAACUCUUCUCCAGGAGUUUCCUCCUGCUUUCUCAACAGCUCGCAGUCAAG”, the binding signal (log2 fold change) is 0.0742. Take “GGUCACGUCUCAAUCAACUCAUCCCCCAGGGAAAGCCCUGGUUUUUUCAACAGCUCGCAGUCAAG”: the binding signal (log2 fold change) was -0.322. With “GGUCACGUCUCAAUCAACUCAAUUUCAGGAGUUUCCUCCUGCUUUUUCAACAGCUCGCAGUCAAG” the figure was 0.0717; with “GGUCACGUCUCAAUCAACUCAAUUUCAGGAGUUUCCUCCUGUAAACUCAACAGCUCGCAGUCAAG”, -0.0664; with “GGUCACGUCUCAAUCAACUCAAUAGAGGGGGGGAAAACCCCUUUACCCUCACAAUCAACAGCUCGCAGUCAAG”, 0.0449.

With “GGUCACGUCUCAAUCAACUCUCAAGAGGGGGGGAAAACCCCUUUACCCUCACUCUCAACAGCUCGCAGUCAAG”, the binding signal (log2 fold change) turned out to be 0.247. With “GGUCACGUCUCAAUCAACUCUAUGUCAGGAGUUUCCUCCUGCUUAUUCAACAGCUCGCAGUCAAG” the figure was 0.0552. With “GGUCACGUCUCAAUCAACUCAACUCCAGGAGUUUACUCCUGCUAACUCAACAGCUCGCAGUCAAG” the figure was 0.0678. With “GGUCACGUCUCAAUCAACUCAAUAGAGGGGGGGAAAACCCCUUUGCCCUCAUUCUCAACAGCUCGCAGUCAAG” the figure was -0.116; with “GGUCACGUCUCAAUCAACUCUUCUCCCAGGGAAAACCCUGGCUAUCUCAACAGCUCGCAGUCAAG”, -0.126; with “GGUCACGUCUCAAUCAACUCAUCAGAGGGGGGGAAAACCCCUUUACCCUCCACAUCAACAGCUCGCAGUCAAG”, 0.149. Take “GGUCACGUCUCAAUCAACUCUUACGAGGGGGGGAAAACCCCUUUACCCUCUUUUUCAACAGCUCGCAGUCAAG”: the binding signal (log2 fold change) was 0.274. On to “GGUCACGUCUCAAUCAACUCUACUCCCAGGGAAACCCCUGGUAUUCUCAACAGCUCGCAGUCAAG”, for which the binding signal (log2 fold change) is -0.291. With “GGUCACGUCUCAAUCAACUCAGUCUCCAGGGAAAACCCUGGUAUAUUCAACAGCUCGCAGUCAAG” the figure was 0.0128.

Regarding “GGUCACGUCUCAAUCAACUCUCUGGAGGGGGGGAAAACCCCUUUACCCUCAAUCUCAACAGCUCGCAGUCAAG”, the binding signal (log2 fold change) was -0.315. For “GGUCACGUCUCAAUCAACUCUAUAGAGGGGGGGAAAACCCCUUUACCCUCAUCGUCAACAGCUCGCAGUCAAG”, the binding signal (log2 fold change) was -0.195. With “GGUCACGUCUCAAUCAACUCAUCCUCAGGAGUUUUCUCCUGCAUUCUCAACAGCUCGCAGUCAAG”, the binding signal (log2 fold change) was 0.108.

For the sequence “GGUCACGUCUCAAUCAACUCACACGAGGGGGGGAAAACCCCUUUACCCUCACAUUCAACAGCUCGCAGUCAAG”, the binding signal (log2 fold change) is -0.165.

In the case of “GGUCACGUCUCAAUCAACUCAUUCUCCAGGGAAACCCCUGGCAUUUUCAACAGCUCGCAGUCAAG”, the binding signal (log2 fold change) came to 0.0302.

As to “GGUCACGUCUCAAUCAACUCAAUCUCCAGGGAAAGCCCUGGCAUAUUCAACAGCUCGCAGUCAAG”, the binding signal (log2 fold change) was found to be 0.274. With “GGUCACGUCUCAAUCAACUCAUUUCCAGGAGUUUUCUCCUGCAUACUCAACAGCUCGCAGUCAAG” the figure was -0.0244; with “GGUCACGUCUCAAUCAACUCAAUUUCAGGAGUUUUCUCCUGUAAACUCAACAGCUCGCAGUCAAG”, -0.0628; with “GGUCACGUCUCAAUCAACUCAAGUCCAGGAGUUUUCUCCUGCAAUCUCAACAGCUCGCAGUCAAG”, -0.121. As to “GGUCACGUCUCAAUCAACUCAUCUUCCAGGGAAACCCCUGGCGUAUUCAACAGCUCGCAGUCAAG”, the binding signal (log2 fold change) is -0.179. As to “GGUCACGUCUCAAUCAACUCUUUCGAGGGGGGGAAAACCCCUUUGCCCUCAUAUUCAACAGCUCGCAGUCAAG”, the binding signal (log2 fold change) was -0.172. Regarding “GGUCACGUCUCAAUCAACUCUACUCCAGGAGUUUCCUCCUGUUUAUUCAACAGCUCGCAGUCAAG”, the binding signal (log2 fold change) amounted to 0.033. As to “GGUCACGUCUCAAUCAACUCUCUAGAGGGGGGGAAAACCCCUUUACCCUCAUACUCAACAGCUCGCAGUCAAG”, the binding signal (log2 fold change) was -0.00253. With “GGUCACGUCUCAAUCAACUCUCACGAGGGGGGGAAAACCCCUUUACCCUCAAUUUCAACAGCUCGCAGUCAAG” the figure was 0.0287.

As for “GGUCACGUCUCAAUCAACUCUUUCUCCAGGGAAAGCCCUGGCAAUUUCAACAGCUCGCAGUCAAG”, the binding signal (log2 fold change) is 0.03. Consider “GGUCACGUCUCAAUCAACUCAUCUUCAGGAGUUUACUCCUGCAUACUCAACAGCUCGCAGUCAAG”, for which the binding signal (log2 fold change) is 0.181. With “GGUCACGUCUCAAUCAACUCGUCUUCAGGAGUUUUCUCCUGCUUUCUCAACAGCUCGCAGUCAAG” the figure was -0.0211; with “GGUCACGUCUCAAUCAACUCAGUCCCAGGAGUUUCCUCCUGCAUAUUCAACAGCUCGCAGUCAAG”, 0.0864.

On to “GGUCACGUCUCAAUCAACUCUUAAGAGGGGGGGAAAACCCCUUUACCCUCAAAAUCAACAGCUCGCAGUCAAG”, for which the binding signal (log2 fold change) came out at 0.666. Take “GGUCACGUCUCAAUCAACUCCAAAGAGGGGGGGAAAACCCCUUUGCCCUCAAUCUCAACAGCUCGCAGUCAAG”: the binding signal (log2 fold change) was 0.107. With “GGUCACGUCUCAAUCAACUCAAGGUCAGGAGUUUCCUCCUGUAAAUUCAACAGCUCGCAGUCAAG”, the binding signal (log2 fold change) amounted to 0.224. With “GGUCACGUCUCAAUCAACUCCUACGAGGGGGGGAAAACCCCUUUACCCUCAUCUUCAACAGCUCGCAGUCAAG” the figure was -0.192; with “GGUCACGUCUCAAUCAACUCCUCGGAGGGGGGGAAAACCCCUUUACCCUCAUUUUCAACAGCUCGCAGUCAAG”, -0.271.

Values taken from article PMC5892938.
